The shares of active, inactive and inconclusive entries below differ from those in the screen. No potency is given beside an inconclusive call; the fits are too rough. The source made the active and inactive calls. Calls come from the whole dose curve; as a rule, active = well fitted inhibition curve with a large enough effect; inconclusive = small, poorly fitted or top-dose-only effect; inactive = no such curve, though single readings can be large or run the other way.
Molecular target: Cytochrome P450 3A7 (Homo sapiens) (UniProt P24462)
Sequence of UniProt P24462 (P24462 whole entry, looked up): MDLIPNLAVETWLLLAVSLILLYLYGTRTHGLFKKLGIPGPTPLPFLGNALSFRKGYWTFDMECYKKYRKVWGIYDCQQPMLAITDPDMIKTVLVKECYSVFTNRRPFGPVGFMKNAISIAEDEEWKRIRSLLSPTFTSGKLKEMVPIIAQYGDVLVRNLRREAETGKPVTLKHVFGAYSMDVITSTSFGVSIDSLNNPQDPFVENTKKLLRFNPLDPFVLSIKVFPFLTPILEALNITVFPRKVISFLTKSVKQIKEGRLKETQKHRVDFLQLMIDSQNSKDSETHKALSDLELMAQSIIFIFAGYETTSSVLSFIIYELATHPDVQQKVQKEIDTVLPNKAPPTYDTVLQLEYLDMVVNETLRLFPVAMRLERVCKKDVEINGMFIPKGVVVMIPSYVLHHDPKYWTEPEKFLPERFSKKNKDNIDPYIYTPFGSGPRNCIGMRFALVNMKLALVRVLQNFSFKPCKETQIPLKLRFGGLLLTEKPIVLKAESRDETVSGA
Experiment: Cytochrome P450 family 3 subfamily A member 7 (CYP3A7) small molecule antagonists: luciferase biochemical qHTS assay (AID 1963596); note: nearly all actives have a fitted effect of over 40% in size
Conditions: P450-Glo CYP3A7 enzyme luminescence, 1 h; series mostly up to 57.4 µM
Outline: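 Biochemical CYP3A7 activity measured with P450-Glo system: luciferin formed from proluciferin substrate in NADPH-driven reaction (1 h, room temperature) after 10 min compound preincubation. Signal in relative luminescence units.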
Potency is the fitted concentration of half-maximal effect; tags give direction and shape of the fitted curve.

Row | Structure (SMILES) | Potency
1 | COC(=O)c1ccccc1O | inactive
2 | Oc1ccc(C2(c3ccccc3F)CCC(F)(F)CC2)cc1 | active: 5.01 µM
3 | CCOc1ccc(NC(=O)Cn2cc(C(=O)c3cccs3)c3ccccc32)cc1 | inactive
4 | Cc1nc2c(-c3ccccc3)c(C)[nH]n2c(=O)c1Cc1ccc(Br)cc1 | inconclusive [inhibitor, full curve, poor fit]
5 | O=C1NC(=O)[C@@]2(CCOc3ccc(F)cc32)N1 | inactive
6 | COc1ccc(C(=O)Nc2ncc(-c3ccc(C(=O)O)cc3)s2)cc1 | inactive
7 | CC(C)OC(=O)c1cc(C(=O)OC(C)C)cc([N+](=O)[O-])c1 | inconclusive [inhibitor, single point]
8 | CC1(C#N)CCN(c2c(C(=O)N3CCN(S(C)(=O)=O)CC3)cnc3cc(F)c(F)cc23)CC1 | active: 14.1 µM
9 | NC(=O)C[C@H](N)C(=O)O | inactive
10 | CNC(=O)c1ccc2c(c1)CCO[C@H]2CCN1CCN(c2ccc(C(N)=O)cc2)CC1 | inconclusive [inhibitor, partial curve, poor fit]
11 | CCN(CC)C(=O)[C@]1(c2ccccc2)C[C@H]1CN | inconclusive [inhibitor, single point]
12 | COc1ccc(OC)c(/C=C(\C#N)c2nc3ccccc3c(=O)[nH]2)c1 | inconclusive [inhibitor, full curve]
13 | CCOc1cc(CNC(=O)c2ccc(C)c(NC(=O)c3nsc4ccccc34)c2)ccc1OC | inconclusive [inhibitor, full curve]

Source: PubChem BioAssay (NCATS)
